From article PMC4336329 (PLoS ONE, 2015)
Out of some 310,000 compounds screened, about 14,000 (4.5%) showed an effect of 50% or more. The effect is printed as a negative number. Some of the results follow.

biological target: human ether-à-go-go-related gene (hERG) potassium channel (human, UniProt Q12809); experiment: primary screen, population patch clamp on CHO cells stably expressing hERG
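Further: peak tail current of the secondary pulse compared with the same well before compound.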

Chain of human ether-à-go-go-related gene (hERG) potassium channel (Q12809 whole entry, looked up): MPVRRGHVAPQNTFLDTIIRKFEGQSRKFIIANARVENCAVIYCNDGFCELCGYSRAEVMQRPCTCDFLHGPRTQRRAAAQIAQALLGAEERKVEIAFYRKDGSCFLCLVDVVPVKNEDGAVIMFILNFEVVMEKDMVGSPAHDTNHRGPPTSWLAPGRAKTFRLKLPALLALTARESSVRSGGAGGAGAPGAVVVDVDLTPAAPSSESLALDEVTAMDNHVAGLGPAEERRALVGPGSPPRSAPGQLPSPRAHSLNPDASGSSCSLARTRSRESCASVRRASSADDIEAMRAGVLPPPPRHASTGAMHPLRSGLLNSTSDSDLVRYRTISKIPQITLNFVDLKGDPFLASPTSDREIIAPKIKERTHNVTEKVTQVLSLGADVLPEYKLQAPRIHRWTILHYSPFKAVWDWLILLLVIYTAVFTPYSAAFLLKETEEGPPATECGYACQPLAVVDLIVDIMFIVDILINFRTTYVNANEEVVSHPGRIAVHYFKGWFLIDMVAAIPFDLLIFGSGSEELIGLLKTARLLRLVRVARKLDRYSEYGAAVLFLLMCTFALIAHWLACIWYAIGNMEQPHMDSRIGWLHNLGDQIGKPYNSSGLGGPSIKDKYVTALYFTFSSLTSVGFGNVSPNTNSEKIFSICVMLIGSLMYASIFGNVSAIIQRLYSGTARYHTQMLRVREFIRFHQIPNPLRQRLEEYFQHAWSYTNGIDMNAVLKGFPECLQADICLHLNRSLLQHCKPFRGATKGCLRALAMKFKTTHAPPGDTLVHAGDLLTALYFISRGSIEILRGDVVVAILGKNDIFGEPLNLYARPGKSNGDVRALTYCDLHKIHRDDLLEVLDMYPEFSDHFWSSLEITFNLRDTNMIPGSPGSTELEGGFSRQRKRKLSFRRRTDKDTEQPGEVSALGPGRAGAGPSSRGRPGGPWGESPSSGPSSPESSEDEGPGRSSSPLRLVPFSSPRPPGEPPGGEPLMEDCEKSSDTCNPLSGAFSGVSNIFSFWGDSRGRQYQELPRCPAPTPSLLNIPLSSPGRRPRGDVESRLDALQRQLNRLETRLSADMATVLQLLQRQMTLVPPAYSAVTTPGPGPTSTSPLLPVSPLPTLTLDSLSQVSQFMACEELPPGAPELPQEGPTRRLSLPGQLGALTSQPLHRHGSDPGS

Compound | hERG current change (%, negative = inhibition) at 10uM [%]
COc1ccc(NC(=O)Cc2c[nH]c3ccccc23)cc1S(=O)(=O)N1CCCCC1 | -6.59
Cc1ccc([N+](=O)[O-])cc1S(=O)(=O)Nc1ccc(-c2ccc(N3CCOCC3)nn2)cc1 | -47.1
CSC(C1CCCC1)n1nnc2ccccc21 (stereo not drawn) | -4.29
COc1cccc(NC(=O)C/C(C)=N/NC(=O)c2ccccc2Cl)c1 | 2.44
C=CCn1c(O)c(C(C)=NCc2ccco2)c(=O)[nH]c1=O | -24.3
O=[N+]([O-])c1cc(C(F)(F)F)ccc1N1CCN(S(=O)(=O)c2ccc3c(c2)CCCC3)CC1 | -0.944
COc1ccc(N2CCN(C(=O)CSc3ccccc3)CC2)cc1 | 4.44
CCCNC(=O)c1cc(S(=O)(=O)N2CCCCC2)ccc1N1CCOCC1 | -32.2
C=CCC1(CC=C)CCCN1C(=O)c1cc(COc2cccc(C(F)(F)F)c2)on1 | 49.9
CCc1ccc(NC(=O)Cn2nc(C(=O)O)c3ccccc3c2=O)cc1 | 20.4
Cc1ccc(NC(=O)CC2SCCNC2=O)cc1Cl (stereo not drawn) | -22.8
CC(=O)c1c(C)[nH]c(C(=O)OCC(=O)Nc2cccc(S(=O)(=O)N3CCCC3)c2)c1C | -3.92
Cc1cc(C(=O)OCCN2C(=O)c3ccccc3C2=O)c2ccccc2n1 | -5.48
COc1ccc(-c2cn3c(C)c(C(=O)Nc4cccc(NC(C)=O)c4)sc3n2)cc1 | 11.3
Cc1ccc2cc(/C=N/Nc3ccc(C(=O)O)cc3)c(Cl)nc2c1 | 20.3
Br.CCn1c2c(c(=N)c3c1CCC3)CCC2 | 0.642
COc1cc(C2NC(=O)C(C#N)=C(Nc3cccc(C)c3)S2)ccc1O (stereo not drawn) | 22.5
CC(C)OC(=O)c1c(NC(=O)c2ccco2)sc2c1CCCCC2 | 9.62
CCCCNC(=S)N/N=C1\C(=O)c2cccc3cccc1c23 | -5.67
COc1ccccc1NC(=O)NCC1(N(C)C)CCCCC1 | -1.31
CCn1cc(C(=O)NCc2cccs2)c(=O)c2ccc(C)nc21 | 12.9
O=C1NN=C(c2ccc(Br)cc2)CC1c1ccc(Cl)cc1 (stereo not drawn) | 18.9

Compound | hERG current change (%, negative = inhibition) at 10uM [%]
Nc1nc(Nc2ccccc2F)nc(N2CCCC2)c1[N+](=O)[O-] | 4.5
COCCn1cc(C(=O)N2CCN(C)CC2)c2c3ccccc3n(C)c2c1=O | 9.52
O=C(c1ccc([N+](=O)[O-])cc1)N1CCN(C(=O)c2cccnc2)CC1 | -15.7
O=[N+]([O-])c1ccccc1/C=C/C=N/Nc1nc(N2CCCCC2)nc(N2CCCCC2)n1 | -12.2
Cc1c(C(=O)OCC(=O)Nc2ccc(N3CCOCC3)cc2)oc2ccccc12 | 2.26
COc1ccc(C(C#N)Nc2ccccc2C)cc1 (stereo not drawn) | -5.25
O=C(CN1CCc2ccccc21)NC(=O)NC1CCCCC1 | -8.81
CCNC(=S)N1CCC(C(=O)c2ccc3c(c2)OCCO3)CC1 | 9.57
COc1ccc(-c2c(-c3ccccc3)c(C(=O)C(=O)NCCCN(C)C)n3ccc4cc(OC)c(OC)cc4c23)cc1OC | -10.5
C/C(=N\NC(=O)c1ccccc1C)c1ccc(NC(=O)c2cccs2)cc1 | 6.4
C=CCNC(=O)C12CCC(C)(C(=O)C1Br)C2(C)C (stereo not drawn) | 15.4
Cc1cccc(NC(=O)C2CCCN(S(=O)(=O)c3cccs3)C2)c1C (stereo not drawn) | 8.15
CCOC(=O)COC(=O)c1ccc(Oc2cc(C)nc(SC)n2)cc1 | -24.4
CS(=O)(=O)N1CCN(CC2CC3C=CC2C3)CC1.O=C(O)C(=O)O (stereo not drawn) | 5.01
O=C(Oc1cc(-c2ccccc2)no1)c1ccc(F)cc1 | -2.71
CCC(=O)Nc1cc(C(=O)O)ccc1Sc1ccc(Cl)cc1 | -12
O=C(Nc1oc2ccccc2c(=O)c1-c1ccc(Br)cc1)c1ccco1 | -52.5
Cn1c(NCc2ccco2)nc2c1c(=O)n(Cc1ccc(Br)cc1)c(=O)n2C | -6.48
COC(=O)c1[nH]c2ccc(F)cc2c1NC(=O)C1=COCCO1 | -15.9
CC(=O)CC(=O)Nc1ccc(Nc2ccccc2)cc1 | -2.87
O=C(Nc1ccc(NC(=O)C2CC2)nc1)c1cccs1 | 14
Cn1cc(C(=O)c2ccc(Cl)cc2Cl)cc1C(=O)N/N=C(\N)COc1ccccc1 | -23.9

Compound | hERG current change (%, negative = inhibition) at 10uM [%]
O=C1Cn2c(nc3ccccc32)N1c1cccc(C(F)(F)F)c1 | -20.1
O=C(Nc1cccc(-c2cnc3ccccc3n2)c1)c1ccc(Cl)cc1 | 1.04
Cc1ccc(C(=O)CN(C(=O)c2ccc(Cl)c(Cl)c2)N2C(=O)C3CCCCC3C2=O)cc1C (stereo not drawn) | -0.798
CCOc1ccccc1N(CC(=O)N/N=C/c1cc(Br)ccc1OC)S(C)(=O)=O | 15.3
Cc1ccccc1C(=O)Nc1cccc(NC(=O)c2ccc(F)cc2)c1 | 1.98
Oc1oc(-c2ccco2)nc1C=Nc1ccccc1 | -12.3
COc1cc(-c2nc3cnccn3c2Nc2ccc3c(c2)OCCO3)ccc1O | -4.62
O=C(Nc1ccc2oc(-c3ccc4ccccc4c3)nc2c1)c1cccs1 | 4.14
CN(Cc1ccccc1)S(=O)(=O)c1ccc(Cl)c(C(=O)OCC(N)=O)c1 | -30
O=C1c2[nH]nc(-c3ccccc3O)c2C(c2ccccc2F)N1Cc1ccco1 (stereo not drawn) | 10.9
CC(=O)c1cc2c(cc1NC(=O)CN1CCN(c3cccc(C(F)(F)F)c3)CC1)OCO2.Cl | 5.1
O=C(Cn1c(=O)oc2ccccc21)Nc1ccccc1N1CCOCC1 | 29.1
CC1CCN(c2nc(/C=C/c3ccccc3)nc3ccccc23)CC1 | -0.307
CNC(=S)N/N=C1\C2CN3CCN(C2)CC1(c1ccccc1)C3 | -2.75
N#C/C(=C\c1ccc2c(c1)OCO2)C(N)=S | 20.4
Cc1ccc(OCc2nc(-c3cccs3)no2)c([N+](=O)[O-])c1 | 2.24
COc1ccc(N(CC(=O)N2c3ccccc3CC2C)S(=O)(=O)c2c(C)nn(C)c2C)cc1 (stereo not drawn) | -25.9
CC(C)(C)C(=O)NC1CC2CCCC(C1)N2C(=O)Nc1cccc(Cl)c1 (stereo not drawn) | 13.6
CCOC(=O)c1ccccc1NC(=O)CSc1nc2ccccc2n1CC(=O)N1CCCC1 | -46.2
CCc1ccc(OCCNC(=O)OCc2ccccc2)cc1 | -9.08
O=C(NCc1ccc(Cl)cc1)c1cc2c(s1)CS(=O)(=O)C2 | -15.1
Cc1n[nH]c(=O)c2c(NC(=O)CSc3cc(Cl)ccc3Cl)oc(C)c12 | -10.9

Compound | hERG current change (%, negative = inhibition) at 10uM [%]
O=C(CSc1nnc(-c2ccccc2)n1-c1ccc(Cl)cc1)N/N=C/c1ccccc1C(=O)O | 7.8
COc1ccc(CCN2CNc3c(c(=O)n(C)c(=O)n3C)C2)cc1OC | 7.08
CN(C(=O)COC(=O)c1nc(-c2ccccc2)n(-c2ccccc2)n1)C1CCS(=O)(=O)C1 (stereo not drawn) | 17.2
CC[n+]1c(C)cc(C)n1-c1ccccc1.[I-] | -3.39
CCOC(=O)Cc1[nH]nc2c1C(c1ccoc1)C(C#N)=C(N)O2 (stereo not drawn) | -8.23
CCOc1cc([N+](=O)[O-])c2nc(N)sc2c1 | 8.54
COC(=O)[C@H](Cc1ccccc1)NC(=O)c1ccc2ccccc2n1 | -25.1
CCOc1ccc(N2C(=O)C3=C(C(c4ccc(Cl)cc4)=NCCN3)C2c2cccnc2)cc1 (stereo not drawn) | -40.1
COc1cc(/C=C(\C#N)C(=O)NCc2ccccc2)ccc1OCc1ccc(C(=O)O)cc1 | -12.4
CCN(Cc1ccccc1)S(=O)(=O)c1ccc(OC)cc1 | -19.9
Cc1cc(C(=O)CN2C(=O)c3ccccc3S2(=O)=O)c(C)n1C(C)C | -9.98
O=C(NC1CCCCCCC1)C1CCN(S(=O)(=O)N2CCCC2)CC1 | -2.62
Cc1ccc(C)c(OCc2nc3ccccc3[nH]2)c1 | -2.46
CNC(=O)OCCc1nccn1C | -0.422
O=C(NCCN1CCOCC1)/C(=C\c1ccccc1Cl)NC(=O)c1ccccc1 | -16.2
Cc1ccccc1-c1cccc(CN2CCN(C)C(CCO)C2)c1 (stereo not drawn) | -21.6
CCc1nnc(NC(=O)CSc2nccn2-c2cccc(C)c2)s1 | 4.62
CC(=O)Oc1cccc(C(=O)Nc2c[nH]c(=O)[nH]c2=O)c1 | 15
Cl.O=C(Nc1ncc([N+](=O)[O-])s1)c1cccs1 | 19.5
CCc1ccc(C2=NN(C(=O)CCC(=O)O)C(c3cccs3)C2)cc1 (stereo not drawn) | 15.9
Cc1cccc(NS(=O)(=O)c2coc(C(N)=O)c2)c1C | 6.97
